Test results as given in paper PMC9756848, “Kinetics of free and ligand-bound atacicept in human serum” (Frontiers in Immunology, 2022).

Molecular target: the molecule itself
Assay: SEC; Superdex S200 Increase HR 10/30, PBS 10 ug/ml BSA, 0.7 ml/min; proteins alone or Flag-ligand with a 20-fold mass excess of atacicept; fractions analysed by Western blot; complexes of fractions 10 and 11 concentrated and run again

B1: Flag-hBAFF (ligand)
chain: not shown
notes: linker between the Flag tag and hBAFF; human BAFF (BLyS), […]; also called Flag-BAFF; human Flag-BAFF; source: 293T, transient transfection, purified on anti-Flag agarose; not shown: Flag, N-terminal, kept
In the case of B1, the “stoichiometry N” value is reported as 3.
